Some of the results follow. Repeats are few or missing, and single values can be far off.
Experiments:
Experiment in all cases: cell count relative to DMSO control; melanoma cells; higher = more viable cells
Settings in all cases: library dose: low library concentration; 72 h
MZ2-MEL = test system: MZ2-MEL
MeWo = test system: MeWo
RPMI7951 = test system: RPMI7951
RVH-421 = test system: RVH-421
SkMel28 = test system: SkMel28
SkMel30 = test system: SkMel30
SkMel5 = test system: SkMel5
UACC257 = test system: UACC257
UACC62 = test system: UACC62
WM115 = test system: WM115
WM1716 = test system: WM1716
WM1745 = test system: WM1745
WM3526 = test system: WM3526
WM3619 = test system: WM3619
WM451Lu = test system: WM451Lu
SkMel2 = test system: SkMel2
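Note: cell number obtained by counting DAPI-stained nuclei in high-throughput microscope images with image analysis software, screen run in 1,536-well plates.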

Structure (SMILES)	cell count (MZ2-MEL)	cell count (MeWo)	cell count (RPMI7951)	cell count (RVH-421)	cell count (SkMel28)	cell count (SkMel30)	cell count (SkMel5)	cell count (UACC257)	cell count (UACC62)	cell count (WM115)	cell count (WM1716)	cell count (WM1745)	cell count (WM3526)	cell count (WM3619)	cell count (WM451Lu)	cell count (SkMel2)
COc1cc(N2CCC(N3CCN(C)CC3)CC2)ccc1Nc1ncc(Cl)c(Nc2ccccc2S(=O)(=O)C(C)C)n1 + O=C(Oc1ccc([N+](=O)[O-])cc1)N1CCC(C(O)(c2ccc3c(c2)OCO3)c2ccc3c(c2)OCO3)CC1 [JZL184] (first compound 0.08 µM, partner dose 1 µM)	109%	85.2%	90.3%	80.6%	79.8%	94.3%	81.1%	99.8%	108%	94%	87.6%	84.2%	88%	83.7%	66.6%	
CO[C@H]1C[C@@H]2CC[C@@H](C)[C@@](O)(O2)C(=O)C(=O)N2CCCC[C@H]2C(=O)O[C@H]([C@H](C)C[C@@H]2CC[C@@H](OCCO)[C@H](OC)C2)CC(=O)[C@H](C)/C=C(\C)[C@@H](O)[C@@H](OC)C(=O)[C@H](C)C[C@H](C)/C=C/C=C/C=C/1C [everolimus] + C[As](C)SC[C@H](NC(=O)CC[C@H](N)C(=O)O)C(=O)NCC(=O)O [Darinaparsin] (first compound 0.02 µM, partner dose 0.4 µM)	81.2%	58.1%	78.2%	70.9%	62.8%	58.1%			53.1%	79.4%	67.6%	81.7%	66.9%	67.9%	71.5%	
CN1CCN(c2ccc3nc(-c4c(N)c5c(F)cccc5[nH]c4=O)[nH]c3c2)CC1 [Dovitinib] + Cc1cc(SCc2sc(-c3ccc(C(F)(F)F)c(F)c3)nc2C)ccc1OCC(=O)O [GW0742] (first compound 0.1 µM, partner dose 2 µM)		108%	99.8%	111%	94.4%	112%	89.4%	89.3%	102%	98.1%	117%	87.7%	102%	80.2%	94.9%	109%
COc1ccc(COc2ccc(Cc3cnc(N)nc3N)cc2OC)cc1 + Cc1cc(SCc2sc(-c3ccc(C(F)(F)F)c(F)c3)nc2C)ccc1OCC(=O)O [GW0742] (first compound 1 µM, partner dose 2 µM)	93%	98%	85.7%	122%	102%	105%	91.2%	86.9%	95.6%	108%	121%	88%	121%	104%	104%	
O=C(CCCCCCC(=O)Nc1ccccc1)NO [vorinostat] + Cc1cc(SCc2sc(-c3ccc(C(F)(F)F)c(F)c3)nc2C)ccc1OCC(=O)O [GW0742] (first compound 0.08 µM, partner dose 2 µM)	102%	108%	84.4%	616%	72.8%	107%	89.7%	118%	93%	97.2%	100%	96.8%	130%	95.9%	114%	
C#Cc1cccc(Nc2ncnc3cc(OCCOC)c(OCCOC)cc23)c1 [erlotinib] + Cc1cc(SCc2sc(-c3ccc(C(F)(F)F)c(F)c3)nc2C)ccc1OCC(=O)O [GW0742] (first compound 0.8 µM, partner dose 2 µM)		97.9%	94.5%	81.1%	86.1%	105%	98.3%	107%	96.5%	90.1%	84.8%	76.8%	105%	82.7%	114%	
O=C(CCCCCCC(=O)Nc1ccccc1)NO [vorinostat] + O=C(Oc1ccc([N+](=O)[O-])cc1)N1CCC(C(O)(c2ccc3c(c2)OCO3)c2ccc3c(c2)OCO3)CC1 [JZL184] (first compound 0.08 µM, partner dose 1 µM)		94.7%	104%	103%	77.3%	104%	84.4%	91.5%	72.4%	98.3%	101%	95.2%	80.7%	111%	96.5%	
Cc1nc(Nc2ncc(C(=O)Nc3c(C)cccc3Cl)s2)cc(N2CCN(CCO)CC2)n1 [dasatanib] + O=C(Oc1ccc([N+](=O)[O-])cc1)N1CCC(C(O)(c2ccc3c(c2)OCO3)c2ccc3c(c2)OCO3)CC1 [JZL184] (first compound 0.004 µM, partner dose 1 µM)		85.9%	76.9%	92.2%	79.8%	92.1%	85.9%	70.8%	78.6%	75.1%	75.3%	61.7%	78.7%	86.3%	69.4%	

— the supplement of paper PMC4604168 (melanoma cell lines)
